Assay results: PubChem BioAssay AID686979 (National Center for Advancing Translational Sciences (NCATS), 2013)
Hit rate of the full screen: of about 420,000 compounds, about 50,000 (12%) were called active. Inconclusive results, whose numbers are uncertain, are shown with a selection of clear calls. Calls follow the shape of the dose curve; as a rule, active = well fitted inhibition curve with a large enough effect; inconclusive = small, poorly fitted or top-dose-only effect; inactive = flat fitted curve, though single readings scatter. No potency is given beside an inconclusive call; the fits are too rough.

Experiment: qHTS for Inhibitors of human tyrosyl-DNA phosphodiesterase 1 (TDP1): qHTS in cells in presence of CPT; also: nearly all actives have a fitted effect of over 55% in size
Details: chicken DT40 Tdp1-/-;hTDP1 cells + 20 nM CPT, ATP luminescence, 48 h; activity change, negative = growth inhibition: at 46.2 µM (top of the series) unless noted
In short: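 Cell growth measured by CellTiter-Glo luminescence after a minimum 48 h, 37 C compound exposure with 20 nM CPT in Tdp1-knockout DT40 cells stably expressing hTDP1, seeded 400/well; qHTS titration format.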
% is scaled to controls: 0 for no effect and ±100 for the full control effect; potency is read from the fitted curve at half-maximal effect; tags tell the direction and shape of the fitted curve.

Row | Compound | Potency | activity change, negative = growth inhibition
1 | COc1cc(-c2noc(-c3ccccc3C(=O)NCc3ccco3)n2)cc(OC)c1OC | inconclusive [inhibitor, single point] | 
2 | CCn1cc(C(=O)NCCc2ccc(Cl)cc2)c(=O)c2cc(S(=O)(=O)N3CCCCCC3)ccc21 |  | inactive: -11.6%
3 | CCN1CCN(C(=O)N[C@@H](C(=O)N[C@@H]2C(=O)N3[C@@H]2SC(C)(C)[C@H]3C(=O)O)c2ccccc2)C(=O)C1=O | inconclusive [inhibitor, single point] | 
4 | CCOC(=O)CCNC(=O)Nc1ccc2nc(C)n(Cc3cccc(Cl)c3)c(=O)c2c1 | inconclusive [inhibitor, single point] | 
5 | CCOC(=O)c1c(C)[nH]c(C(=O)OCC(=O)NC(C)(C)C)c1C | inconclusive [inhibitor, single point] | 
6 | COc1cc(C(=O)NCc2cccnc2)ccc1OCC(=O)Nc1cccc(C(F)(F)F)c1 | active: 5.17 µM | 
7 | O=C(COc1ccccc1F)Nc1ccc2nc(SCC(=O)N3CCCC3)sc2c1 | inconclusive [inhibitor, single point] | 
8 | Cc1nc(-c2ccc(S(=O)(=O)NCc3ccc(OC(C)C)cc3)cc2)co1 | inconclusive [inhibitor, single point] | 
9 | O=C(Cn1cnc2c(cnn2-c2ccccc2)c1=O)Nc1ccc(S(=O)(=O)N2CCOCC2)cc1 | inconclusive [inhibitor, single point] | 
10 | Cc1ccc2c(=O)c(C(=O)c3ccccc3)cn(CC(=O)Nc3ccccc3C)c2n1 |  | inactive: -12.6%
11 | C/C(=N/NC(=O)CN1CCN(Cc2ccccc2)CC1)c1ccc([N+](=O)[O-])cc1 |  | inactive: 4.41%
12 | CC1(C)CC(=O)c2cnc(N3CCN(c4ccccc4)CC3)nc2C1 | inconclusive [inhibitor, single point] | 
13 | O=C(NCC(c1cccnc1)N1CCN(c2ccc(F)cc2)CC1)C1CCCCC1 (stereo not given) | inconclusive [inhibitor, single point] | 
14 | CCCCn1c(SCC(=O)Nc2cc(C)[nH]n2)nc2ccsc2c1=O | inconclusive [inhibitor, partial curve] | 
15 | CCn1nnc(NC(=S)NC(=O)c2ccc(-c3cccc(Cl)c3)o2)n1 |  | inactive: 11.5%
16 | CNc1nc(-c2ccccc2C(F)(F)F)nc2ccccc12 | inconclusive [inhibitor, single point] | 
17 | CN(C)c1ccc(-c2ccc3c(=O)c4ccccc4n(C)c3c2)cn1 | inconclusive [inhibitor, single point] | 
18 | CC(C)C(=O)NC(C)C(c1cccs1)N1CCN(c2ccccc2)CC1 (stereo not given) | inconclusive [inhibitor, single point] | 
19 | COc1ccccc1-c1sc2ccccc2c1-c1ccc2c(c1)OCO2 | active: 23.1 µM | 
20 | CC1CC1c1ccc(/C=C(\C#N)C(=O)Nc2cccc(Cl)c2Cl)o1 (stereo not given) | inconclusive [inhibitor, single point] | 
21 | COc1cc(Nc2nc3c(N)cc(C(F)(F)F)cc3nc2-c2ccccc2)cc(OC)c1OC | inconclusive [inhibitor, single point] | 
22 | CCCN1C(=O)C(O)(CC(=O)c2ccc(CC)cc2)c2cc(Br)ccc21 (stereo not given) | active: 7.31 µM | 
23 | COc1cc(OC)c(OC)cc1/C=C/c1ccc2ccccc2n1 | active: 11.2 µM | 
24 | O=C(Nc1ccccc1N1CCN(C(=O)c2ccccc2)CC1)c1ccc2c(c1)OCO2 | inconclusive [inhibitor, single point] | 

Row | Compound | Potency | activity change, negative = growth inhibition
25 | O=C(NC(=S)Nc1cc(C(F)(F)F)ccc1N1CCOCC1)c1ccco1 | inconclusive [inhibitor, single point] | 
26 | O=[N+]([O-])c1ccc(N=NNc2ccccc2)cc1 | inconclusive [inhibitor, single point] | 
27 | Cc1ccc2c(C)nc(Nc3nc(CSc4nnc(C)s4)cc(=O)[nH]3)nc2c1 | active: 11.2 µM | 
28 | COc1ccc(OC)c(S(=O)(=O)Nc2ccc(-c3ccc4nnc(C)n4n3)cc2)c1 | active: 8.2 µM | 
29 | CCc1ccc(OCC(=O)N(Cc2ccc(C)cc2)Cc2ccco2)cc1 | inconclusive [inhibitor, single point] | 
30 | COC(=O)CCC(=O)NC1CC(C)(C)Cc2c1cnn2-c1ccccc1 (stereo not given) |  | inactive: -2.83%
31 | Cc1cccc(C)c1-n1ncc(C(=O)NCc2ccc3c(c2)OCO3)c1C1CCN(C(=O)OC(C)(C)C)CC1 | inconclusive [inhibitor, single point] | 
32 | CCN1CCN(C(=O)c2ccccc2N(Cc2ccccc2)S(=O)(=O)c2ccc(OC)cc2)CC1 | inconclusive [inhibitor, single point] | 
33 | Cc1c(-n2c(-c3ccccc3)nc3ccccc3c2=O)c(=O)n(-c2ccccc2)n1C | inconclusive [inhibitor, single point] | 
34 | O=C(Nc1ncc(Cc2ccc(Cl)cc2Cl)s1)c1ccc([N+](=O)[O-])cc1 | active: 18.4 µM | 
35 | O=C(Nc1ccc([N+](=O)[O-])cc1)c1cc(Cl)sc1Cl | inconclusive [inhibitor, single point] | 
36 | COc1ccc(C(=O)Nc2ccccc2C(N)=O)cc1 | inconclusive [inhibitor, full curve, poor fit] | 
37 | C[C@@H]1CC=C[C@H]2[C@H]1C(=O)N(Cc1ccccc1)[C@H]2c1ccc2ccccc2c1/C=C/c1ccccc1 | inconclusive [inhibitor, single point] | 
38 | CSc1ncccc1C(=O)Nc1ccc(OC(F)(F)F)cc1 | inconclusive [inhibitor, single point] | 
39 | COc1ccccc1NC(=O)CN1CCN(c2ccc(F)cc2)CC1 | inconclusive [inhibitor, single point] | 
40 | Cn1c(CCNC(=O)c2ccccc2)nc2cc(NC(=O)C3CCCCC3)ccc21 | inconclusive [inhibitor, single point] | 
41 | CC(C)(C)c1ccc(NC(=O)C(=O)C2C(=O)Nc3ccccc32)cc1 (stereo not given) | inconclusive [inhibitor, single point] | 
42 | NNC(=S)NC1CCS(=O)(=O)C1 (stereo not given) |  | inactive: 1.03%
43 | CCOC(=O)C1=C(C)N(C[C@@H]2CC[C@@H](Cc3ccc(-c4ccccc4)cc3)O2)C(=O)NC1C1CC1 (stereo not given in full) | inconclusive [inhibitor, single point] | 
44 | CC(CCCC(C)(C)O)NC(=O)c1cc(COc2ccc3ncccc3c2)on1 (stereo not given) | active: 8.2 µM | 
45 | CCOc1ccc(N=CNc2ccc(OCC)cc2)cc1 |  | inactive: 8.07%
46 | S=c1nc[nH]c2c1cnn2-c1ccccc1 |  | inactive: -5.59%
47 | COc1ccc(CNC(=O)c2cc(S(=O)(=O)N3CCCCC3)ccc2N2CCOCC2)cc1OC | inconclusive [inhibitor, partial curve] | 
48 | O=C1c2cccc3c(N4CCCCC4)ccc(c23)C(=O)N1c1cccc(O)c1 | inconclusive [inhibitor, single point] | 

Row | Compound | Potency | activity change, negative = growth inhibition
49 | COc1ccc(CNc2nc(S(=O)(=O)c3ccccc3)c(Cl)s2)cc1OC | inconclusive [inhibitor, single point] | 
50 | CCOC(=O)C1=C(C)NC(SCc2cc(=O)[nH][nH]2)=C(C#N)C1c1cccs1 (stereo not given) |  | inactive: -8.33%
51 | CN(C)S(=O)(=O)c1ccc(Cl)c(NC(=O)CN2CCNC(=O)C2)c1 |  | inactive: -1.18%
52 | Cc1nc2cc(C(=O)NCCN3CCOCC3)ccc2n1-c1ccc(F)cc1F |  | inactive: 3.77%
53 | COCCNC(=O)c1c(N)n(-c2ccccc2)c2nc3ccccc3nc12 |  | inactive: -28.6%
54 | CN1CCN(CC(O)COCCOc2ccc(Br)cc2)CC1 (stereo not given) | inconclusive [inhibitor, single point] | 
55 | Cc1cc(NC(=O)CON=C(N)CC(=O)Nc2ccccc2Cl)ccc1Br |  | inactive: -5.03%
56 | CCCCN(CC)S(=O)(=O)c1ccc2c(c1)CCCN2C(C)=O | inconclusive [inhibitor, single point] | 
57 | COc1ccc(C(=O)CSc2nnc(C3CCCCC3)n2N)c(OC)c1 | inconclusive [inhibitor, single point] | 
58 | O=C1OC(c2ccccc2)(N(Nc2ccccc2)c2ccccc2)c2ccccc21 (stereo not given) | inconclusive [inhibitor, single point] | 
59 | Cc1ccc(C(=O)c2coc3cc([N+](=O)[O-])c(O)c([N+](=O)[O-])c23)cc1 | inconclusive [inhibitor, single point] | 
60 | Cc1[nH]c2ccccc2c1C(c1ccncc1)N1CCCCC1 (stereo not given) | active: 13 µM | 
61 | O=C(Oc1ccc([N+](=O)[O-])cc1)c1cncc(Br)c1 |  | inactive: -18.9%
62 | Cc1cc(C2=NNC(=NC3CC3)SC2)c(C)n1Cc1ccco1 | active: 16.4 µM | 
63 | CCCCCCCCCC[n+]1cccc2cc(Cl)ccc21 | active: 1.26 µM | 
64 | C/C(=N/NC(=O)CN1CCN(S(=O)(=O)c2ccc(Br)cc2)CC1)c1cccnc1 |  | inactive: 2.69%
65 | O=C(O)CCCN1C(=O)/C(=C\c2ccccc2OCc2ccccc2)SC1=S |  | inactive: 1.79%
66 | CC1CN(C(=O)/C(C#N)=C2\N=C(NC(=O)c3ccc(F)cc3)c3ccccc32)CC(C)O1 (stereo not given) |  | inactive: -11.5%
67 | COc1cccc(/C=C/C(=O)N2CC(C)OC(C)C2)c1OC (stereo not given) |  | inactive: -27.1%
68 | O=c1oc(-c2ccccc2)nc2c1cnn2-c1ccccc1 |  | inactive: -24.6%
69 | OC(c1ccc(F)c(F)c1)c1nc(-c2ccc(F)c(Cl)c2)cs1 (stereo not given) | inconclusive [inhibitor, single point] | 
70 | COc1ccc(OCc2nnc3n2N=C(c2ccc(Br)cc2)CS3)cc1 | inconclusive [inhibitor, single point] | 
